Test results from article PMC4336329 (PLoS ONE, 2015).
Out of some 310,000 compounds screened, about 14,000 (4.5%) showed an effect of 50% or more. Effects have a minus sign here. Some of the results follow.

target: human ether-à-go-go-related gene (hERG) potassium channel (human, UniProt Q12809); test: primary screen, population patch clamp on CHO cells stably expressing hERG
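Further: peak tail current of the secondary pulse compared with the same well before compound.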

Sequence of human ether-à-go-go-related gene (hERG) potassium channel (Q12809 whole entry, looked up): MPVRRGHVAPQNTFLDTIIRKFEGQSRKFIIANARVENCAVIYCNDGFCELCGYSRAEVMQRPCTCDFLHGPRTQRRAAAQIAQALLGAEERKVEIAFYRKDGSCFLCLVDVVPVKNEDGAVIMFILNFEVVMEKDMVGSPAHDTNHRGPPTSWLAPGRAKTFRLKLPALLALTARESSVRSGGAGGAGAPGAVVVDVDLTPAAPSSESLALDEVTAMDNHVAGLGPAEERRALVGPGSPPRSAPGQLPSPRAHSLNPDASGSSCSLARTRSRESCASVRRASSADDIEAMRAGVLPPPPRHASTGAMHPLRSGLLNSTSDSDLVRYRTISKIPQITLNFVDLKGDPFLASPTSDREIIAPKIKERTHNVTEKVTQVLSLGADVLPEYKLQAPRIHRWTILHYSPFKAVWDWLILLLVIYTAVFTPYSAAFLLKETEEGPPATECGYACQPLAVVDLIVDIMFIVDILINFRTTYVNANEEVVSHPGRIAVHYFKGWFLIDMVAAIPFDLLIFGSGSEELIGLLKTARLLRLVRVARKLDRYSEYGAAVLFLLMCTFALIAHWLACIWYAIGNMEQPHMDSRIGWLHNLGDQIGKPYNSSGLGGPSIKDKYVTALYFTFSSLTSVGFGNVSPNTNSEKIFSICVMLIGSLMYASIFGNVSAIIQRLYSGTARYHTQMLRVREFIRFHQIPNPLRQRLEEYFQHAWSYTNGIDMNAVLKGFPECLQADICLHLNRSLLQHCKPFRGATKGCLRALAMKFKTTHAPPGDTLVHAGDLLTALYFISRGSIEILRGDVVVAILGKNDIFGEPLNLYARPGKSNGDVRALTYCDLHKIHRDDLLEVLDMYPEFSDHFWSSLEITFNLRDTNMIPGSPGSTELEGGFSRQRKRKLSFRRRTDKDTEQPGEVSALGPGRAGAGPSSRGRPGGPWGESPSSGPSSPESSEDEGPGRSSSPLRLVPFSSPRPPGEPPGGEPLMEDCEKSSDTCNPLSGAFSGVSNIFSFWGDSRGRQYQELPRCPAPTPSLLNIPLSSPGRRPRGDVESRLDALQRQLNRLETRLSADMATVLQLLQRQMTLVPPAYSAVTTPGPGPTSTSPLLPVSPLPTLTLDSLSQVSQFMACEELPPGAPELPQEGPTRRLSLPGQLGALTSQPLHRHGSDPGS

Compound	hERG current change (%, negative = inhibition) at 10uM
Cc1nn(-c2ccccc2)c(Cl)c1/C=N/NC(=O)c1ccco1	-17.7%
Cc1ccc(C)c(OCc2cc(C(=O)N3C[C@H]4C[C@@H](C3)c3cccc(=O)n3C4)no2)c1	-38.3%
COc1cc(Cn2ccnc2)c(OC)cc1Cn1ccnc1	-13.4%
COc1cc(OC)cc(-c2nnc(NC(=O)CCS(=O)(=O)c3ccc(C)cc3)o2)c1	-3.68%
COc1ccc(NC(=O)c2cc(C)no2)cc1Cl	19.3%
COc1cccc(NC(=O)CNS(=O)(=O)c2ccc3nc(C)sc3c2)c1	1.57%
C[C@@H](C(=O)N1CCN(C(=O)OC(C)(C)C)CC1)n1cc(CCCN=C(NC(=O)OC(C)(C)C)NC(=O)OC(C)(C)C)nn1	8.32%
Cc1ccc(OCCN(C)C)c([N+](=O)[O-])c1.O=C(O)C(=O)O	-36.1%
O=C(OC1Cn2c(=O)ccc(=O)n2C1)c1ccc([N+](=O)[O-])cc1	-12.8%
COc1ccc(C(=O)c2oc3nc(C)cc(C)c3c2N)cc1	-4.43%
CCOC(=O)C1CCN(S(=O)(=O)c2cnc[nH]2)CC1	14.3%
Cc1ccc(-n2c(O)c(/C=C/C=Nc3ccccc3)c(=O)[nH]c2=O)cc1	9.3%
CCc1ccccc1N1CSC2=C(C#N)C(c3ccccc3F)CC(=O)N2C1 (stereo not drawn)	-5.52%
CC1Sc2ccc(S(=O)(=O)CCC(=O)Nc3ccccc3Cl)cc2NC1=O (stereo not drawn)	4.08%
CCC(CC)C(=O)NCc1ccccc1Cl	12.5%
COCC(C)n1c(C)cc(C(=O)CSc2nc3ccccc3c(=O)[nH]2)c1C (stereo not drawn)	3.95%
CC1(C)CC(=O)C/C(=N/NC(=O)COc2ccc(Cl)cc2Cl)C1	-14.3%
Cc1ccc(/C=N/NC(=O)c2nnn(-c3nonc3N)c2CSc2ccccc2)o1	11.7%
COc1ccc(N2CCN(CC(=O)Nc3nc(C)cs3)CC2)cc1	13.4%
O=C(Cn1ccc(C(F)(F)F)n1)N/N=C/c1ccc(N2CCOCC2)cc1	7.68%
CSCc1ccc(C(=O)NCc2ccccc2)cc1	-8.13%
C/C(=N\Nc1ccc(C(=O)O)cc1)c1ccc(Cl)s1	21.8%

Compound	hERG current change (%, negative = inhibition) at 10uM
COc1ccc(NS(=O)(=O)c2ccc3c(c2)oc(=O)n3C)cc1Cl	10.4%
CCOc1ccc(OCCC(=O)OCC(=O)Nc2ccc(Cl)cn2)cc1	7.09%
CC(C(=O)N(C1CC1)C1(C(=O)Nc2ccccc2)CCCC1)N1C(=O)c2ccccc2C1=O (stereo not drawn)	-0.31%
c1ccc2c(c1)c1cccc3ccc4cccc2c4c31	16.4%
CCCCn1c(O)c(C(CC)=NCc2cccnc2)c(=O)[nH]c1=O	-33.6%
CCOCCCNC(=O)C1(O)c2cc(Br)ccc2NC(=O)N1c1ccc(CC)cc1 (stereo not drawn)	28.4%
O=C(O)Cc1cn(Cc2cccc(Cl)c2)c2ccccc12	12.6%
CC(C)(C)OC(=O)CN1C(=O)S/C(=C\c2ccc(-c3cccc(C(=O)O)c3)o2)C1=O	17.5%
O=C(C1CCCN(S(=O)(=O)c2ccc(Br)cc2)C1)N1CCN(Cc2ccccc2)CC1 (stereo not drawn)	-55.1%
COc1ccc(N(CC(=O)N/N=C/c2ccc(F)cc2)S(=O)(=O)c2ccccc2)cc1	-3.78%
COCCCn1c(SCC(=O)Nc2oc(C)c3c(C)n[nH]c(=O)c23)nc2ccccc2c1=O	-46.5%
Cc1ccc(CS(=O)(=O)CCC(=O)NCc2ccc(F)cc2)cc1	7.26%
CCOc1ccc(Nc2cc3n(c(=O)n2)CCc2cc(OC)c(OC)cc2-3)cc1	-16.1%
COc1ccc(-c2ocnc2C(=O)N2CCN(C(c3ccccc3)c3ccccc3)CC2)cc1	6.49%
COCC(=O)N1CCC(Oc2ccc(C(=O)N3C[C@@H](C)O[C@@H](C)C3)cc2)CC1	-25.8%
Cc1ccc(S(=O)(=O)NCC(=O)OCc2csc(-c3ccccc3)n2)cc1	5.28%
O=C(COc1ccccc1)NCCc1cnc[nH]1	13.5%
CC1CCC(NC(=O)CN(C)CC(=O)Nc2ccc(F)cc2)CC1 (stereo not drawn)	-13.3%
CCN(CC)C(=O)CS(=O)CC(=O)Nc1cc(OCCOC)c(Cl)cc1Cl (stereo not drawn)	8.46%
O=c1[nH]c(Cc2cccc(C(F)(F)F)c2)nc2ccccc12	19.1%
C=CCn1c(-c2cccc(OC)c2)n[nH]c1=S	14.5%
Cc1ccc(C(=O)OCC(=O)Nc2cc(F)ccc2F)cc1NC(=O)c1ccco1	7.99%

Compound	hERG current change (%, negative = inhibition) at 10uM
CCNC(=O)CCCOc1ccc(Cl)cc1Cl	-5.18%
CC(C)=CC(=O)Nc1nnc(C)s1	-7.45%
CO/N=C/C(=N\Nc1ccc(OC)cc1)C(=O)c1ccc(OC)cc1	32.6%
Cc1cc(C)n(C(C)CC(=O)Nc2ccc3c(c2)OCO3)n1 (stereo not drawn)	10.2%
CC(C)C(NC(=O)c1ccc(Cl)cc1)C(=O)NCC1CCCO1 (stereo not drawn)	21%
O=S(=O)(Nc1ncccn1)c1ccc(F)cc1	6.68%
Cc1ccc(NC(=O)CSCC(=O)Nc2ncc3c(n2)CC(c2ccco2)CC3=O)cc1 (stereo not drawn)	-30.4%
Cc1ccccc1CN1CCN(CC(=O)NCc2ccccn2)C1=O	10.3%
C=CCNC(=O)CN(c1ccc(F)cc1)S(=O)(=O)c1ccc(OC)cc1	-17.8%
Cc1ccc(CNC(=O)c2ccc(N3CCCC3=O)cc2)cc1	-3.75%
CC(C)CCOP(=O)(c1ccc(N(C)C)cc1)C(O)c1ccc(C(C)C)cc1 (stereo not drawn)	11.7%
O=C(Nc1cccnc1)c1cc(S(=O)(=O)N2CCOCC2)ccc1Br	-35.8%
O=C(N/N=C/c1cc(Cl)cc([N+](=O)[O-])c1O)c1ccc2c(c1)OCO2	17.5%
CC(=O)C1C(=O)C=C(c2ccco2)CC1c1ccccc1 (stereo not drawn)	-3.77%
O=C1C=C(c2ccc3c(c2)oc2ccccc23)C[C@@H](c2ccc3c(c2)OCO3)C1	20.2%
COc1ccc(CNc2nc(C)c([N+](=O)[O-])c(C)c2C#N)cc1	12.9%
CC(C(=O)Nc1ccccc1Br)c1ccc([N+](=O)[O-])cc1 (stereo not drawn)	-35.5%
Cc1cc(-c2nn(-c3ccccc3)cc2/C=C2\SC(N)=NC2=O)ccc1OC(C)C	-0.837%
O=C(NCCN1C(=O)S/C(=C/c2ccccc2)C1=O)C1CCCN1C(=O)c1cccs1 (stereo not drawn)	-26.9%
CCOC(=O)c1cc(NC(=O)Nc2ccccn2)c(C)nc1C	0.079%
O=C(NCCCC(NC(=O)OCc1ccccc1)C(=O)O)OCc1ccccc1 (stereo not drawn)	12.3%
COc1ccc(N(C(=O)CS(=O)CC(=O)Nc2ccc(F)cc2)C(C(=O)NC2CCCCC2)c2cccs2)cc1 (stereo not drawn)	0.92%

Compound	hERG current change (%, negative = inhibition) at 10uM
O=C(N/N=C/c1ccc(F)cc1)c1cc(-c2ccc3c(c2)OCO3)n[nH]1	4.07%
CC(C)CCNC(=O)c1cc(S(=O)(=O)N2CCCCC2)ccc1N1CCOCC1	-9.66%
Cc1ccc(-c2nc(C(F)(F)F)cc(=O)[nH]2)cc1	12.7%
Cc1ccc(C(=O)Nc2nnc(SCC(=O)N3CCCc4ccccc43)s2)cc1	7.27%
O=C(C[n+]1ccc(-c2nnc3n2CCCCC3)cc1)c1ccc(Cl)cc1.[Br-]	7.92%
CCN(CC)N=O	9.38%
O=C(O)C(=O)O.O=[N+]([O-])c1ccc(N2CCN(Cc3ccc([N+](=O)[O-])o3)CC2)cc1	-71.1%
CCOC(=O)c1c(C(F)(F)F)cc(-c2ccc(F)cc2)nc1C	4.95%
Cc1ccc(S(=O)(=O)N2CCN(C3CC(=O)N(CCc4ccccc4)C3=O)CC2)cc1C (stereo not drawn)	-27.7%
Cc1cc(C)c2cc(C(=O)Nc3ccccc3)[nH]c2c1	5.27%
COC(=O)NCc1ccc2c(c1)OCO2	10.2%
O=C(NCc1ccccc1)[C@]1(C(F)(F)F)C[C@H](CCc2ccccc2)CCCO1	3.84%
CCOC(=O)c1ccc(N2CCN(C(=O)c3ccccc3)CC2)c(NC(=O)c2ccco2)c1	-71.5%
O=S1(=O)c2ccccc2N=NN1Cc1ccc(Cl)cc1	16.1%
Cc1ccc2nc(N3CCOCC3)c3nncn3c2c1	-9.49%
Cc1cc(C)c2c(c1)cc(C)c1nnc(SCC(=O)Nc3ccc(S(=O)(=O)N4CCCCC4)cc3)n12	12.6%
CCCCOc1ccc(/C=N/Nc2cc(N3CCOCC3)nc(C)n2)cc1	-30.5%
CC1CN(CCOc2ccc([N+](=O)[O-])cc2)CC(C)O1.O=C(O)C(=O)O (stereo not drawn)	-46.2%
CCCCCCCc1c(O)nc(SCCN2CCOCC2)[nH]c1=O.Cl	-17.2%
Cc1ccccc1NS(=O)(=O)c1ccc2c(c1)NC(=O)CO2	5.97%
COC(=O)C1=C(C)NC(=O)NC1c1c(O)ccc2ccccc12 (stereo not drawn)	20%
